Results reported in paper PMC7049725.
No constants are given. Whether binding was seen depends on the method and setting. In cells and extracts the contact can be indirect. Some results given as binding are weak or reduced against the parent protein; the word gives no strength. Tags and fused reporters may be left off the sequences shown.

Sequences of proteins named here, by UniProt entry; tags and fusion partners are left off.
UniProt O60293: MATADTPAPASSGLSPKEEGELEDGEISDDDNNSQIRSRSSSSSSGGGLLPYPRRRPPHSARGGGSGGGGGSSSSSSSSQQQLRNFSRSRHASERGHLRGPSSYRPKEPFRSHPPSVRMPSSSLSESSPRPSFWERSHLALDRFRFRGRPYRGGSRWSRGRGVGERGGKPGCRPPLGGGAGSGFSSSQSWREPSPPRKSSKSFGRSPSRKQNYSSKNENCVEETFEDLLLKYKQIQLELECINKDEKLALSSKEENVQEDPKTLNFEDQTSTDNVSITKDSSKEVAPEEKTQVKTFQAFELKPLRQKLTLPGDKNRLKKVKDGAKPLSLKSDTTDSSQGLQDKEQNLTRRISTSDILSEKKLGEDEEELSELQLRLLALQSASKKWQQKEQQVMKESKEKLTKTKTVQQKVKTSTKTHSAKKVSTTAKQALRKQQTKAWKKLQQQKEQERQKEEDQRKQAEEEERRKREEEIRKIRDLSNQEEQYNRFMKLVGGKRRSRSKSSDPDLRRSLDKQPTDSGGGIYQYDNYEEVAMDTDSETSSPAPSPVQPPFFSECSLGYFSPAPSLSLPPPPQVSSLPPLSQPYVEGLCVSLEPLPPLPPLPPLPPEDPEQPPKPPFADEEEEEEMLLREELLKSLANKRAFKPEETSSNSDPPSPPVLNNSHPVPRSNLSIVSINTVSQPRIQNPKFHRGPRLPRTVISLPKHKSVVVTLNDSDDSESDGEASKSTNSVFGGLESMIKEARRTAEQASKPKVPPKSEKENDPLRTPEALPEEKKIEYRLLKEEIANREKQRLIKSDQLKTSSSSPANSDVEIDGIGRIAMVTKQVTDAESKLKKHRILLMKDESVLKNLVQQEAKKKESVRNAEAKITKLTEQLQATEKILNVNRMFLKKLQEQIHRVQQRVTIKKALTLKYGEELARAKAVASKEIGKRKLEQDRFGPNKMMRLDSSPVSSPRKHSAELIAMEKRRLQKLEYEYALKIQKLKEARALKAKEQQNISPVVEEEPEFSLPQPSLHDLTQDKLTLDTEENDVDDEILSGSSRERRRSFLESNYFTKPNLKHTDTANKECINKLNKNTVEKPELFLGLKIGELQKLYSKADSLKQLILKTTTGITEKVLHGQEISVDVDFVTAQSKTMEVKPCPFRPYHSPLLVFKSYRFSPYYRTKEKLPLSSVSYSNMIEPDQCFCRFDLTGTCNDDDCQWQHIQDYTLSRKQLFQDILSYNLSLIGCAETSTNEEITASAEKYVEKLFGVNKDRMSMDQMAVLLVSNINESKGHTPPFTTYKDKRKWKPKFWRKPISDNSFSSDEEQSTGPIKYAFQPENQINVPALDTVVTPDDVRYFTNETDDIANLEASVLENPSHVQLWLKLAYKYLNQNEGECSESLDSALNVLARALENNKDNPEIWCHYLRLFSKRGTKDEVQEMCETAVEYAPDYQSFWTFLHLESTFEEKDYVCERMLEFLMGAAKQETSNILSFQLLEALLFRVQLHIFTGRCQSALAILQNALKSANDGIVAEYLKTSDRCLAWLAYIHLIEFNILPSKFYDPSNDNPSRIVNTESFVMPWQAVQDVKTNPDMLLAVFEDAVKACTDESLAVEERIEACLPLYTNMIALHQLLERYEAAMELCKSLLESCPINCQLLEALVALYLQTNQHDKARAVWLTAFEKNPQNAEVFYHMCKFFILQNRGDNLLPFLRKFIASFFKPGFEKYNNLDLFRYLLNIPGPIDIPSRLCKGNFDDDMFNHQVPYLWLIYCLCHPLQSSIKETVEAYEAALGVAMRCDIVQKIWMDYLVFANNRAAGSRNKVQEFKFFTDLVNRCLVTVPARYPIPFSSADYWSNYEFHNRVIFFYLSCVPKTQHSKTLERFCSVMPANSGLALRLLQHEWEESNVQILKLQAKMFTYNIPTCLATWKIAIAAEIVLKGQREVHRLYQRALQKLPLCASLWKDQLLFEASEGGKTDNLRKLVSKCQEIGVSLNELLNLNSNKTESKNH

B1: PABPN1 (protein, UniProt Q86U42 1-306)
chain: MAAAAAAAAAAGAAGGRGSGPGRRRHLVPGAGGEAGEGAPGGAGDYGNGLESEELEPEELLLEPEPEPEPEEEPPRPRAPPGAPGPGPGSGAPGSQEEEEEPGLVEGDPGDGAIEDPELEAIKARVREMEEEAEKLKELQNEVEKQMNMSPPPGNAGPVIMSIEEKMEADARSIYVGNVDYGATAEELEAHFHGCGSVNRVTILCDKFSGHPKGFAYIEFSDKESVRTSLALDESLFRGRQIKVIPKRTNRPGISTTDRGFPRARYRARTTNYNSSRSRFYSGFNSRPRGRVYRGRARATSWYSPY
B2: RBM7 (protein, UniProt Q9Y580 1-266)
chain: MGAAAAEADRTLFVGNLETKVTEELLFELFHQAGPVIKVKIPKDKDGKPKQFAFVNFKHEVSVPYAMNLLNGIKLYGRPIKIQFRSGSSHAPQDVSLSYPQHHVGNSSPTSTSPSRYERTMDNMTSSAQIIQRSFSSPENFQRQAVMNSALRQMSYGGKFGSSPLDQSGFSPSVQSHSHSFNQSSSSQWRQGTPSSQRKVRMNSYPYLADRHYSREQRYTDHGSDHHYRGKRDDFFYEDRNHDDWSHDYDNRRDSSRDGKWRSSRH
B3: ZCCHC8 (protein, UniProt Q6NZY4 1-707)
chain: MAAEVYFGDLELFEPFDHPEESIPKPVHTRFKDDDGDEEDENGVGDAELRERLRQCEETIEQLRAENQELKRKLNILTRPSGILVNDTKLDGPILQILFMNNAISKQYHQEIEEFVSNLVKRFEEQQKNDVEKTSFNLLPQPSSIVLEEDHKVEESCAIKNNKEAFSVVGSVLYFTNFCLDKLGQPLLNENPQLSEGWEIPKYHQVFSHIVSLEGQEIQVKAKRPKPHCFNCGSEEHQMKDCPMPRNAARISEKRKEYMDACGEANNQNFQQRYHAEEVEERFGRFKPGVISEELQDALGVTDKSLPPFIYRMRQLGYPPGWLKEAELENSGLALYDGKDGTDGETEVGEIQQNKSVTYDLSKLVNYPGFNISTPRGIPDEWRIFGSIPMQACQQKDVFANYLTSNFQAPGVKSGNKRSSSHSSPGSPKKQKNESNSAGSPADMELDSDMEVPHGSQSSESFQFQPPLPPDTPPLPRGTPPPVFTPPLPKGTPPLTPSDSPQTRTASGAVDEDALTLEELEEQQRRIWAALEQAESVNSDSDVPVDTPLTGNSVASSPCPNELDLPVPEGKTSEKQTLDEPEVPEIFTKKSEAGHASSPDSEVTSLCQKEKAELAPVNTEGALLDNGSVVPNCDISNGGSQKLFPADTSPSTATKIHSPIPDMSKFATGITPFEFENMAESTGMYLRIRSLLKNSPRNQQKNKKASE

Key:
ZC3H3-3xFLAG (human) [1] = molecular target: T1, ZC3H3-3xFLAG (human) (UniProt Q8IXZ2); test: co-IP; as a1, but bead-bound material treated with 5 U RNase T1 and 2 ug RNase A mix for 20 min at room temperature before elution; western blot
T1 sequence: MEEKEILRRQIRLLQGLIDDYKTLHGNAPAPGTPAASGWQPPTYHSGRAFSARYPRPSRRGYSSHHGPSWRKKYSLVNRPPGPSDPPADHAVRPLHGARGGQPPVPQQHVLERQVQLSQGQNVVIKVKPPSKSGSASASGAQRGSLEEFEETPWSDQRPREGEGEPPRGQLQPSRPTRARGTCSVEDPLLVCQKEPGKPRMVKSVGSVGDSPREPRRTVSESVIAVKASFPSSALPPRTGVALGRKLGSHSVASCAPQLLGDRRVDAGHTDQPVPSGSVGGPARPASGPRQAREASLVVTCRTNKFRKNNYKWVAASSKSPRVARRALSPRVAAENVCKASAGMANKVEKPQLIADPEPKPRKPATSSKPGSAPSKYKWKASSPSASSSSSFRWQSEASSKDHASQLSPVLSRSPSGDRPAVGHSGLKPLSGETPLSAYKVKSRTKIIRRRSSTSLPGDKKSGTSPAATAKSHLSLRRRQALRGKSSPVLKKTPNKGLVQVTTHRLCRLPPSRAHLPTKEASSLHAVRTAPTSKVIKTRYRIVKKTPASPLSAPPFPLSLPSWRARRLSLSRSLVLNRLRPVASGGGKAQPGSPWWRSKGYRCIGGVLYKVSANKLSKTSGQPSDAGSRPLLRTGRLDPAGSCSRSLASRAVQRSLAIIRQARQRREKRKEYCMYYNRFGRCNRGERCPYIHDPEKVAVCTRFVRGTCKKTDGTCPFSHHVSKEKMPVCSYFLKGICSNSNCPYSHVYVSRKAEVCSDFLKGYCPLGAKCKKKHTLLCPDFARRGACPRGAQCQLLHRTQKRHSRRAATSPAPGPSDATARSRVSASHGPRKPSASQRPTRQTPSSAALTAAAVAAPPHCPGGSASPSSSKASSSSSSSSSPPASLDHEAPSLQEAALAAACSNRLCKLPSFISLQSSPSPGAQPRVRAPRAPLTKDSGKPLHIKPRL

ZC3H3-3xFLAG (human) [2] = molecular target: T1, ZC3H3-3xFLAG (human); test: co-IP; anti-FLAG (M2) magnetic beads, HEK293 lysate (150 mM NaCl, 50 mM Tris-HCl pH 7.5, 5% glycerol, 1% IGEPAL-CA-630, 1 mM MgCl2); bead-bound material treated with BSA (1 mg/ml, control) for 20 min at room temperature before elution; western blot
ZC3H3-3xFLAG (human) [3] = molecular target: T1, ZC3H3-3xFLAG (human); test: co-IP; as a1, but bead-bound material treated with 250 U Benzonase for 20 min at room temperature before elution; western blot
ZC3H3-3xFLAG (human) [4] = molecular target: T1, ZC3H3-3xFLAG (human); test: condition: only after treatment of the bead-bound material with Benzonase (250 U); co-IP; as a1, but bead-bound material treated with 250 U Benzonase for 20 min at room temperature before elution; western blot

Molecule	binding (ZC3H3-3xFLAG (human) [1])	binding (ZC3H3-3xFLAG (human) [2])	binding (ZC3H3-3xFLAG (human) [3])	binding (ZC3H3-3xFLAG (human) [4])
ZFC3H1 (from UniProt O60293 1-1989)	binds	binds	binds	–
B1	binds	binds	–	no binding
B2	–	no binding	–	–
B3	–	no binding	–	–
